According to PubChem BioAssay AID2451 (National Center for Advancing Translational Sciences (NCATS), 2010):
The whole screen tested about 290,000 compounds, of which about 2,100 (0.72%) were called active. Inconclusive means that the source gave no clear call. Such entries were picked first, then a sample of the others. Calls come from the whole dose curve; as a rule, active = well fitted inhibition curve with a large enough effect; inconclusive = small, poorly fitted or top-dose-only effect, or effect the other way; inactive = flat fitted curve, though single readings scatter. Potencies of inconclusive entries are doubtful fits and often do not repeat.
% is set by controls: 0 for no effect and ±100 for the full control effect; potency is the fitted concentration of half-maximal effect; tags give direction and shape of the fitted curve.
Note: nearly all actives have a fitted effect of over 55% in size.

What follows are compounds tested against Fructose-bisphosphate aldolase (Giardia intestinalis (strain ATCC 50803 / WB clone C6)) (UniProt A8B2U2) (assay: qHTS Assay for Inhibitors of Fructose-1,6-bisphosphate Aldolase from Giardia Lamblia). Conditions: purified Giardia FBPA; activity, negative = inhibition: at 59.6 µM (top of the series) unless noted.
UniProt A8B2U2, sequence (A8B2U2 whole entry, looked up): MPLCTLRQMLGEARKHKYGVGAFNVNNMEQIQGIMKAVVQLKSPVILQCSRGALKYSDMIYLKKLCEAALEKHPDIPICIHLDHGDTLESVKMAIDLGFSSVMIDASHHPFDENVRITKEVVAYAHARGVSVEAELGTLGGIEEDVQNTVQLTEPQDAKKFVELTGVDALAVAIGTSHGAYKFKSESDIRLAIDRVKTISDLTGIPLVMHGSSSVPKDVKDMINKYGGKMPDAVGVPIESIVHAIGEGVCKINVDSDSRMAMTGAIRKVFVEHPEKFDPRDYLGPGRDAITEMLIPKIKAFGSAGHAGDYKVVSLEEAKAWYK
How it was run: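 40 nM FBPA preincubated 10 min at RT with compound (up to 57.5 uM final), then substrate plus GAPDH/TPI/NAD/arsenate coupling and diaphorase/resazurin added. Fluorescence read after 20 min at RT, 525/598 nm.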
`O=C1CN(CC(=O)N2CCOCC2)c2ccccc2O1` was tested, and the Potency was inconclusive: 1.41 µM [inhibitor, full curve].
With `Cc1ccc(S(=O)(=O)N2CCC(=O)N(CCOCc3ccc(Cl)cc3)CC2)cc1` the Potency was “inactive”.
`Cc1cc(N/N=C/c2cccc(Br)c2)nc2ccccc12` was tested, and the Potency was “inactive”.
`Cc1ccc(CN(Cc2cc3cc4c(cc3[nH]c2=O)OCCO4)Cc2nnnn2Cc2ccco2)cc1` was tested, and the Potency was inconclusive: 19.9 µM [inhibitor, single point].
With `C(=C\CSc1ncn[nH]1)/CSc1ncn[nH]1` the Potency was inconclusive: 1.58 µM [inhibitor, full curve].
In the case of `O=c1[nH]c(=S)[nH]c(O)c1C(c1ccccn1)c1c(O)[nH]c(=S)[nH]c1=O`, the Potency is reported as active: 15.8 µM.
`CC(C)C[C@H](NC(=O)c1nc[nH]c1C(=O)NCc1ccccc1)C(=O)OCc1ccccc1` was tested, and the Potency was inconclusive: 17.7 µM [inhibitor, partial curve].
With `CCN(CC)CCCN1C=C2C(=O)C(C)(OC(=O)CCC(=O)OC)C(=O)C(Br)=C2C=C1c1ccc(OC)cc1` (stereo not given) the Potency was inconclusive: 1.41 µM [inhibitor, single point].
For `CN(C)c1nc(N2CCN(c3ccc(F)cc3)CC2)c(C#N)c(=O)o1`, the Potency was “inactive”.
For `O=C(O)/C=C/C(=O)Nc1ccccc1-c1ccccc1NC(=O)/C=C/C(=O)O`, the Potency was “inactive”.
For `Cc1c2c(n3c(nc4ccccc43)c1C#N)N(c1ccccc1)CC2`, the Potency was inconclusive: 15.8 µM [inhibitor, partial curve].
With `CCOC(=O)C(=O)Nc1nc(-c2ccc3c(c2)CCN3C(=O)C2CC2)c(C)s1` the Potency was inconclusive: 15.8 µM [inhibitor, partial curve].
In the case of `c1ccc(OCCN2CCOCC2)cc1`, the Potency is reported as inconclusive: 8.91 µM [inhibitor, partial curve].
For `O=C(Nc1ccon1)c1ccc(Cl)s1`, the Potency was “inactive”.
For `CN(/C=C/C(=C/C=[N+](C)c1ccccc1)OCCCS(=O)(=O)[O-])c1ccccc1`, the Potency was inconclusive: 15.8 µM [inhibitor, single point].
In the case of `Cc1cccc(N2CCN(C(=O)c3ccc(CS(=O)(=O)c4ccccc4C)o3)CC2C)c1` (stereo not given), the Potency is reported as “inactive”.
In the case of `Cc1cc(O)ccc1N/C=C1\CCCC1=O`, the Potency is reported as active: 8.89 µM.
With `O=C(O)Cn1cc(C(=S)N2CCCCC2)c2ccccc21` the Potency was inconclusive: 31.5 µM [inhibitor, single point].
In the case of `Cc1ccc(NC(=O)CNCc2cccs2)cc1Br`, the Potency is reported as inconclusive: 15.8 µM [inhibitor, partial curve].
`O=C(NC12CC3CC(CC(C3)C1)C2)c1ccc(Br)o1` was tested, and the Potency was “inactive”.
With `COc1cc(OC)c(C2CC(=O)N3CN(c4ccc(C)cc4)CSC3=C2C#N)cc1OC` (stereo not given) the Potency was inconclusive: 0.792 µM [inhibitor, partial curve].
With `CCOC(=O)N1CCN(c2cc(NCCC(=O)O)c3c4c(onc24)-c2ccccc2C3=O)CC1` the Potency was active: 5.61 µM.
`CC1CN(C(=O)CSc2nnc(-c3ccncc3)n2-c2ccccc2)CC(C)O1` (stereo not given) was tested, and the Potency was “inactive”.
`COc1nc(N(C)C)nc(N(C#N)S(=O)(=O)c2ccc(C)cc2)n1` was tested, and the Potency was inconclusive: 28.2 µM [inhibitor, single point].
For `Nc1sc2c(c1C(=O)NC1CCS(=O)(=O)C1)CCCC2` (stereo not given), the Potency was inconclusive: 15.8 µM [inhibitor, partial curve].
In the case of `COc1cc(CN2CCN(C(=O)c3cccc4ccccc34)CC2)cc(OC)c1OC`, the Potency is reported as inconclusive: 28.2 µM [inhibitor, partial curve].
`CCN1CCC(N2CCN(c3ccc(F)cc3)CC2)CC1` was tested, and the Potency was inconclusive: 25.1 µM [inhibitor, single point].
`CCN1CCc2c(sc(NC(=O)Cc3ccccc3)c2C(=O)OC)C1` was tested, and the Potency was active: 14.1 µM.
With `CCc1nnc(NC(=O)c2cnccn2)s1` the Potency was inconclusive: 2.81 µM [inhibitor, full curve, poor fit].
With `CC(=O)Nc1ccc(S(=O)(=O)Oc2ccc(/C=C3\SC(N)=NC3=O)cc2)cc1` the Potency was “inactive”.
With `COc1ccc(Nc2cc(Nc3cccc(OC)c3)ncn2)cc1` the Potency was “inactive”.
In the case of `Cc1ccc(NC(=O)C(=S)NCc2ccco2)cc1`, the Potency is reported as “inactive”.
With `O=C(Nc1ccc(N2CCOCC2)c(Cl)c1)c1ccccc1F` the Potency was inconclusive: 11.2 µM [inhibitor, partial curve].
For `COc1ccc(CNc2ncc(-c3ccc(Br)cc3)n2C)cc1OC`, the Potency was inconclusive: 28.2 µM [inhibitor, partial curve].
For `CC(=O)c1ccc(NC(=S)NC(=O)c2c(Cl)c(C)nn2C)cc1`, the Potency was active: 6.29 µM.
With `N#CC1=C(N)SC(N)=C(C#N)C1c1cccc(O)c1` the Potency was inconclusive: 7.92 µM [inhibitor, partial curve].
In the case of `COc1cc(NC(=S)Nc2ccc(OC(F)F)cc2)cc(OC)c1`, the Potency is reported as “inactive”.
With `O=C1C=C[C@@H](O)[C@@H]2[C@H]3C(=O)N(c4ccc(F)cc4F)C(=O)[C@@H]3CC[C@@H]12` the activity, negative = inhibition was inactive: -0.301% [at 12.9 µM].
`CCCc1cc(-c2n[nH]c(C)c2-c2ccc(C(=O)OCC)o2)c(O)cc1O` was tested, and the Potency was inconclusive: 25.1 µM [inhibitor, partial curve].
`S=C1NNC2(CC3CC2C2CCCC32)NN1` (stereo not given) was tested, and the Potency was inconclusive: 12.6 µM [inhibitor, partial curve].
`NC(CCC(=O)N[C@@H](CS)C(=O)NCC(=O)O)C(=O)O` (stereo not given in full) was tested, and the Potency was inconclusive: 2.23 µM [inhibitor, full curve].
For `COc1ccc(/C=N/Nc2cc(N3CCCC3)nc(N3CCCC3)n2)cc1`, the Potency was inconclusive: 0.177 µM [inhibitor, full curve].
For `CC(C)NS(=O)(=O)c1ccc(CCC(=O)NCc2ccco2)cc1`, the Potency was “inactive”.
`COc1ccc2c(c1)CCc1cn3nc(C)cc3nc1-2` was tested, and the Potency was active: 17.7 µM.
In the case of `CC(CN1CCCC1)OC(=O)Cc1ccc(Cl)cc1` (stereo not given), the Potency is reported as inconclusive: 28.2 µM [inhibitor, single point].
In the case of `CC(=O)c1c(N2CCN(c3ccccn3)CC2)nc(=S)n(-c2ccccc2)c1C`, the Potency is reported as inconclusive: 35.4 µM [inhibitor, single point].
In the case of `CC(C)Oc1ccc(C2CCC(=O)NC2=O)cc1` (stereo not given), the Potency is reported as “inactive”.
`CCOC(=O)CC1C(=O)NCCN1C(=O)c1cc2c(=O)n3ccccc3nc2s1` (stereo not given) was tested, and the Potency was inconclusive: 15.8 µM [inhibitor, single point].
For `Cc1ccc(NC(=O)NC(=O)CN2CCN(c3ccc(O)cc3)CC2)c(C)c1`, the Potency was inconclusive: 12.6 µM [inhibitor, partial curve].
For `Cc1cc2c3c(c1)C(C)CC(C)(C)N3C(=O)C2=C(C#N)C#N` (stereo not given), the Potency was inconclusive: 3.15 µM [inhibitor, full curve].
In the case of `c1ccc(N2CCN(c3nc(NCc4ccco4)c4ccccc4n3)CC2)cc1`, the Potency is reported as “inactive”.
With `COc1ccc(-n2nc(C(=O)NCC(=O)N3CCN(c4ccccc4OC)CC3)c3ccccc3c2=O)c(OC)c1` the activity, negative = inhibition was inconclusive: 42% [activator].
`Cc1cc2nc3c(=O)[nH]c(=O)nc-3n(C)c2cc1C=O` was tested, and the Potency was inconclusive: 0.126 µM [inhibitor, full curve].
With `CCCSc1nc(NCc2ccco2)c2c3c(sc2n1)COC(C)(C)C3` the Potency was “inactive”.
In the case of `C1=Nc2ccccc2CN1c1ccccc1`, the Potency is reported as inconclusive: 15.8 µM [inhibitor, single point].
For `COc1ccc(C(=O)Nc2cc(OC)c(NC(=O)c3ccco3)cc2OC)cc1`, the Potency was inconclusive: 15.8 µM [inhibitor, partial curve].
`CC(=O)Nc1ccc(S(=O)(=O)Nc2nccs2)cc1` was tested, and the Potency was inconclusive: 20 µM [inhibitor, partial curve].
In the case of `CN1C(=O)/C(=C2\SC(=S)N(NC(=O)c3cccnc3)C2=O)c2ccccc21`, the Potency is reported as active: 7.08 µM.
With `COc1cccc2[nH]c(C(=O)NCC3CCCO3)cc12` (stereo not given) the activity, negative = inhibition was inconclusive: 43.8% [activator].
For `CCc1nnc(N/N=C/c2ccc(N3CCC(C)CC3)c([N+](=O)[O-])c2)n1N`, the Potency was active: 7.06 µM.
With `CCCCNC(=O)c1c(N)n(CCCOC)c2nc3ccccc3nc12` the Potency was inconclusive: 3.54 µM [inhibitor, full curve].
With `Cc1cnc(C(=O)Nc2cccc3cccnc23)cn1` the Potency was “inactive”.
With `CCCC(=O)NC(c1ccc(Cl)cc1Cl)c1ccc2cccnc2c1O` (stereo not given) the Potency was inconclusive: 35.5 µM [activator, partial curve].
`COc1ccc(NC(=O)C/C(C)=N/NC(=O)c2cccs2)c([N+](=O)[O-])c1` was tested, and the Potency was “inactive”.
In the case of `Cc1cc(C)c(C#N)c(SCc2nnc(-c3ccccc3)o2)n1`, the Potency is reported as “inactive”.
`Cc1ccccc1OCCN1CCC(Cc2ccccc2)CC1` was tested, and the Potency was inconclusive: 19.9 µM [inhibitor, partial curve].
For `COc1ccccc1Sc1nc(-c2ccccn2)ncc1OC`, the Potency was inconclusive: 3.15 µM [inhibitor, full curve, poor fit].
With `Nc1cc(S(=O)(=O)O)cc([N+](=O)[O-])c1O` the Potency was inconclusive: 15.8 µM [inhibitor, single point].
For `CCN(CC)CCN1C(=O)c2ccccc2NC1c1cccc(F)c1` (stereo not given), the Potency was “inactive”.
With `O=C(CC(c1ccccc1O)N1CCCCC1)N1CCCCC1` (stereo not given) the Potency was “inactive”.
In the case of `O=C1C2CCCN2C(=O)N1CCCN1CCN(c2ccc([N+](=O)[O-])cc2)CC1` (stereo not given), the Potency is reported as inconclusive: 28.2 µM [inhibitor, partial curve].
In the case of `COC(=O)/C=c1\sc2ncnn2c1=O`, the Potency is reported as inconclusive: 22.4 µM [inhibitor, partial curve].
With `COc1cc(CN2CCCCC2)ccc1OCc1ccccc1` the Potency was inconclusive: 17.8 µM [inhibitor, partial curve].
In the case of `COC(=O)c1ccc(NC(c2ccc(Cl)cc2)P(=O)(OC)OC)cc1` (stereo not given), the Potency is reported as “inactive”.
With `CN(C)C(=S)Nc1cccc(-c2n[nH]c(=S)o2)c1` the Potency was inconclusive: 17.7 µM [inhibitor, partial curve].
